Measured values reported in article PMC4813486, “Uncovering the Early Assembly Mechanism for Amyloidogenic β2-Microglobulin Using Cross-linking and Native Mass Spectrometry*” (The Journal of Biological Chemistry, 2015).

Experiments:
[1] = molecular target: the molecule itself; assay: native MS; ion mobility MS, 10 μM monomer concentration, 100 mM ammonium acetate, pH 5
[2] = molecular target: the molecule itself; assay: native MS; ion mobility MS, 30 μM protein, 100 mM ammonium acetate, pH 5 (data not shown)
[3] = molecular target: the molecule itself; assay: cross-linking; BS3-d0/d4 1:1, 25 °C, 1 h; gel electrophoresis (NuPAGE); bands digested in-gel with trypsin; LC-MS/MS

B1: ΔN6-β2m, truncated β2-microglobulin variant lacking six N-terminal residues (domain or fragment)
chain: not shown
notes: β2-microglobulin lacking the six N-terminal residues of the mature protein (11.1-kDa monomer); also called truncated β2m isoform; truncated variant; source: E. coli, purified (ion exchange chromatography, size exclusion chromatography), lyophilized
stoichiometry N [1]: 2
stoichiometry N [2]: > 5
stoichiometry N [3]: 3 and 4

“And” between values parts separate entries of the source, which are not always exact repeats. Equal entries are not always repeated.
